{"source": "patent US8828401B2", "about": "“Cytotoxic peptides and antibody drug conjugates thereof” (Pfizer Inc., priority 2011, dated 2014)", "molecules": {"B1": {"name": "hu28-vc0101: humanized anti-Notch antibody hu28 conjugated to mcValCitPABC-#54 (conjugate)", "heavy": "EVQLVESGGGLVQPGGSLRLSCAASGFTFRDYGMTWVRQAPGKGLEWVAYISSGSNYIYYAEAVKGRFTISRDNAKNSLYLQMNSLRAEDTAVYYCARRGPFVLDAWGQGTLVTVSS[human IgG1 constant region left out]", "light": "DIQMTQSPSSLSASVGDRVTITCKASQSINRYLHWYQQKPGKAPKLLIYNANGLQTGVPSRFSGSGSGTDFTLTISSLQPEDFATYYCLQHNTWPDTFGGGTKVEIKRTVAAPSVFIFPPSDEQLKSGTASVVCLLNNFYPREAKVQWKVDNALQSGNSQESVTEQDSKDSTYSLSSTLTLSKADYEKHKVYACEVTHQGLSSPVTKSFNRGEC"}}, "key": {"MDA-MB-468/hNotch": {"test_system": "MDA-MB-468/hNotch", "experiment": "In vitro cytotoxicity assay with anti-Notch ADCs (MTS)", "assay_type": "cell-based", "protocol": "(§1) The effects of anti-Notch ADCs were assessed on 1) cell lines endogenously expressing Notch protein: HCC2429 (lung cancer), OVCAR3 (ovarian cancer) and MDA-MB-468 (breast cancer), 2) cell lines engineered to over-express Notch protein: MDA-MB-468/hNotch and U2OS/hNotch, and 3) a negative control cell line (SW900) using an MTS cellular viability indicator (Promega, Madison, Wis.). These cell lines were cultured with increasing concentrations of anti-Notch ADCs comprising humanized anti-Notch antibodies, hu28 and hu75, and rat-human chimeric anti-Notch antibodies, ch28 and ch75, conjugated to various linker-payload combinations of the present invention. As a specificity control for the anti-Notch-ADCs, non-targeted control-ADCs (huNeg8.8-ADCs or ch2H6-ADCs) were also tested on the same cell lines. After four days, viability of each culture was assessed. IC50 values were calculated by logistic non-linear regression and presented as ng Ab/mL. The drug antibody ratio (DAR) is also provided."}, "HCC2429 (lung cancer)": {"test_system": "HCC2429 (lung cancer)", "experiment": "In vitro cytotoxicity assay with anti-Notch ADCs (MTS)", "assay_type": "cell-based", "protocol": "as §1"}, "[1]": {"test_system": "MDA-MB-468 (breast cancer)", "experiment": "In vitro cytotoxicity assay with anti-Notch ADCs (MTS)", "assay_type": "cell-based", "protocol": "as §1"}, "OVCAR3 (ovarian cancer)": {"test_system": "OVCAR3 (ovarian cancer)", "experiment": "In vitro cytotoxicity assay with anti-Notch ADCs (MTS)", "assay_type": "cell-based", "protocol": "as §1"}, "U2OS/hNotch": {"test_system": "U2OS/hNotch", "experiment": "In vitro cytotoxicity assay with anti-Notch ADCs (MTS)", "assay_type": "cell-based", "protocol": "as §1"}, "N87 gastric xenografts": {"test_system": "N87 gastric xenografts", "experiment": "N87 gastric xenografts with anti-Notch ADCs", "assay_type": "in vivo, nude (Nu/Nu) female mice", "protocol": "Humanized anti-Notch antibodies, hu28 and hu75, and rat-human chimeric anti-Notch antibodies, ch28 and ch75, were conjugated to various linker-payload combinations and tested in 37622A1 non-small cell lung cancer (NSCLC), HCC2429 lung cancer, MDA-MB-468 breast cancer and N87 gastric cancer xenograft models. For each model described below the first dose was given on Day 0. The tumors were measured at least once a week and their volume was calculated with the formula: tumor volume (mm^3)=0.5×(tumor width^2)(tumor length). The mean tumor volumes (±S.E.M.) for each treatment group were calculated having a maximum of 10 animals and a minimum of 6 animals to be included.\nSimilar in vivo experiments were performed with the N87 gastric cancer cell line as described above. […] When the tumors reached a volume of 250 to 450 mm^3, the tumors were staged to ensure uniformity of the tumor mass among various treatment groups. The N87 gastric model was dosed intraveneously Q4dx4 with PBS vehicle, humanized anti-Notch ADCs, control huNeg-8.8 ADCs and cisplatin at the doses provided in Tables 16 and 17."}, "[2]": {"conditions": "first of two individual repeats"}, "[3]": {"conditions": "second of two individual repeats"}}}
{"molecule": "B1", "values": [{"measurement": "IC50 (ng Ab/mL)", "setting": "MDA-MB-468/hNotch; [2]", "result": 3.2, "unit": "ng Ab/mL"}, {"measurement": "IC50 (ng Ab/mL)", "setting": "MDA-MB-468/hNotch; [3]", "result": 3, "unit": "ng Ab/mL"}, {"measurement": "IC50 (ng Ab/mL)", "setting": "HCC2429 (lung cancer); [2]", "result": 473, "unit": "ng Ab/mL"}, {"measurement": "IC50 (ng Ab/mL)", "setting": "HCC2429 (lung cancer); [3]", "result": 2940, "unit": "ng Ab/mL"}, {"measurement": "IC50 (ng Ab/mL)", "setting": "[1]", "result": 6545, "unit": "ng Ab/mL"}, {"measurement": "IC50 (ng Ab/mL)", "setting": "OVCAR3 (ovarian cancer)", "result": 306, "unit": "ng Ab/mL"}, {"measurement": "IC50 (ng Ab/mL)", "setting": "U2OS/hNotch", "result": 1330, "unit": "ng Ab/mL"}, {"measurement": "tumor volume (mm^3 ± SEM)", "setting": "N87 gastric xenografts; Dose 1 mg/kg Q4dx4 iv, DAY 0", "result": "321 ± 21", "unit": "mm^3"}, {"measurement": "tumor volume (mm^3 ± SEM)", "setting": "N87 gastric xenografts; Dose 1 mg/kg Q4dx4 iv, DAY 4", "result": "369 ± 18", "unit": "mm^3"}, {"measurement": "tumor volume (mm^3 ± SEM)", "setting": "N87 gastric xenografts; Dose 1 mg/kg Q4dx4 iv, DAY 7", "result": "429 ± 43", "unit": "mm^3"}, {"measurement": "tumor volume (mm^3 ± SEM)", "setting": "N87 gastric xenografts; Dose 1 mg/kg Q4dx4 iv, DAY 11", "result": "304 ± 30", "unit": "mm^3"}, {"measurement": "tumor volume (mm^3 ± SEM)", "setting": "N87 gastric xenografts; Dose 1 mg/kg Q4dx4 iv, DAY 14", "result": "282 ± 25", "unit": "mm^3"}, {"measurement": "tumor volume (mm^3 ± SEM)", "setting": "N87 gastric xenografts; Dose 1 mg/kg Q4dx4 iv, DAY 18", "result": "263 ± 24", "unit": "mm^3"}, {"measurement": "tumor volume (mm^3 ± SEM)", "setting": "N87 gastric xenografts; Dose 1 mg/kg Q4dx4 iv, DAY 21", "result": "227 ± 23", "unit": "mm^3"}, {"measurement": "tumor volume (mm^3 ± SEM)", "setting": "N87 gastric xenografts; Dose 1 mg/kg Q4dx4 iv, DAY 26", "result": "205 ± 32", "unit": "mm^3"}, {"measurement": "tumor volume (mm^3 ± SEM)", "setting": "N87 gastric xenografts; Dose 1 mg/kg Q4dx4 iv, DAY 29", "result": "180 ± 30", "unit": "mm^3"}, {"measurement": "tumor volume (mm^3 ± SEM)", "setting": "N87 gastric xenografts; Dose 1 mg/kg Q4dx4 iv, DAY 33", "result": "211 ± 43", "unit": "mm^3"}, {"measurement": "tumor volume (mm^3 ± SEM)", "setting": "N87 gastric xenografts; Dose 1 mg/kg Q4dx4 iv, DAY 36", "result": "215 ± 42", "unit": "mm^3"}, {"measurement": "tumor volume (mm^3 ± SEM)", "setting": "N87 gastric xenografts; Dose 1 mg/kg Q4dx4 iv, DAY 39", "result": "261 ± 54", "unit": "mm^3"}, {"measurement": "tumor volume (mm^3 ± SEM)", "setting": "N87 gastric xenografts; Dose 1 mg/kg Q4dx4 iv, DAY 42", "result": "283 ± 52", "unit": "mm^3"}, {"measurement": "tumor volume (mm^3 ± SEM)", "setting": "N87 gastric xenografts; Dose 1 mg/kg Q4dx4 iv, DAY 47", "result": "262 ± 64", "unit": "mm^3"}, {"measurement": "tumor volume (mm^3 ± SEM)", "setting": "N87 gastric xenografts; Dose 1 mg/kg Q4dx4 iv, DAY 53", "result": "302 ± 75", "unit": "mm^3"}, {"measurement": "tumor volume (mm^3 ± SEM)", "setting": "N87 gastric xenografts; Dose 1 mg/kg Q4dx4 iv, DAY 62", "result": "415 ± 111", "unit": "mm^3"}, {"measurement": "tumor volume (mm^3 ± SEM)", "setting": "N87 gastric xenografts; Dose 1 mg/kg Q4dx4 iv, DAY 70", "result": "521 ± 135", "unit": "mm^3"}, {"measurement": "tumor volume (mm^3 ± SEM)", "setting": "N87 gastric xenografts; Dose 3 mg/kg Q4dx4 iv, DAY 0", "result": "326 ± 13", "unit": "mm^3"}, {"measurement": "tumor volume (mm^3 ± SEM)", "setting": "N87 gastric xenografts; Dose 3 mg/kg Q4dx4 iv, DAY 4", "result": "339 ± 11", "unit": "mm^3"}, {"measurement": "tumor volume (mm^3 ± SEM)", "setting": "N87 gastric xenografts; Dose 3 mg/kg Q4dx4 iv, DAY 7", "result": "302 ± 10", "unit": "mm^3"}, {"measurement": "tumor volume (mm^3 ± SEM)", "setting": "N87 gastric xenografts; Dose 3 mg/kg Q4dx4 iv, DAY 11", "result": "182 ± 14", "unit": "mm^3"}, {"measurement": "tumor volume (mm^3 ± SEM)", "setting": "N87 gastric xenografts; Dose 3 mg/kg Q4dx4 iv, DAY 14", "result": "191 ± 5", "unit": "mm^3"}, {"measurement": "tumor volume (mm^3 ± SEM)", "setting": "N87 gastric xenografts; Dose 3 mg/kg Q4dx4 iv, DAY 18", "result": "161 ± 7", "unit": "mm^3"}, {"measurement": "tumor volume (mm^3 ± SEM)", "setting": "N87 gastric xenografts; Dose 3 mg/kg Q4dx4 iv, DAY 21", "result": "123 ± 15", "unit": "mm^3"}, {"measurement": "tumor volume (mm^3 ± SEM)", "setting": "N87 gastric xenografts; Dose 3 mg/kg Q4dx4 iv, DAY 26", "result": "108 ± 16", "unit": "mm^3"}, {"measurement": "tumor volume (mm^3 ± SEM)", "setting": "N87 gastric xenografts; Dose 3 mg/kg Q4dx4 iv, DAY 29", "result": "99 ± 14", "unit": "mm^3"}, {"measurement": "tumor volume (mm^3 ± SEM)", "setting": "N87 gastric xenografts; Dose 3 mg/kg Q4dx4 iv, DAY 33", "result": "106 ± 17", "unit": "mm^3"}, {"measurement": "tumor volume (mm^3 ± SEM)", "setting": "N87 gastric xenografts; Dose 3 mg/kg Q4dx4 iv, DAY 36", "result": "122 ± 22", "unit": "mm^3"}, {"measurement": "tumor volume (mm^3 ± SEM)", "setting": "N87 gastric xenografts; Dose 3 mg/kg Q4dx4 iv, DAY 39", "result": "128 ± 23", "unit": "mm^3"}, {"measurement": "tumor volume (mm^3 ± SEM)", "setting": "N87 gastric xenografts; Dose 3 mg/kg Q4dx4 iv, DAY 42", "result": "149 ± 25", "unit": "mm^3"}, {"measurement": "tumor volume (mm^3 ± SEM)", "setting": "N87 gastric xenografts; Dose 3 mg/kg Q4dx4 iv, DAY 47", "result": "105 ± 19", "unit": "mm^3"}, {"measurement": "tumor volume (mm^3 ± SEM)", "setting": "N87 gastric xenografts; Dose 3 mg/kg Q4dx4 iv, DAY 53", "result": "104 ± 30", "unit": "mm^3"}, {"measurement": "tumor volume (mm^3 ± SEM)", "setting": "N87 gastric xenografts; Dose 3 mg/kg Q4dx4 iv, DAY 62", "result": "116 ± 47", "unit": "mm^3"}, {"measurement": "tumor volume (mm^3 ± SEM)", "setting": "N87 gastric xenografts; Dose 3 mg/kg Q4dx4 iv, DAY 70", "result": "139 ± 54", "unit": "mm^3"}, {"measurement": "tumor volume (mm^3 ± SEM)", "setting": "N87 gastric xenografts; Dose 5 mg/kg Q4dx4 iv, DAY 0", "result": "321 ± 8", "unit": "mm^3"}]}
